Screen size: about 310,000 compounds; about 14,000 (4.5%) showed an effect of 50% or more. Effects have a minus sign here. Some of the results follow.

The record followed here is article PMC4336329 (PLoS ONE, 2015).
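Note: peak tail current of the secondary pulse compared with the same well before compound.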

The assay deals with human ether-à-go-go-related gene (hERG) potassium channel (human, UniProt Q12809). Briefly: primary screen, population patch clamp on CHO cells stably expressing hERG.
Chain of human ether-à-go-go-related gene (hERG) potassium channel (Q12809 whole entry, looked up): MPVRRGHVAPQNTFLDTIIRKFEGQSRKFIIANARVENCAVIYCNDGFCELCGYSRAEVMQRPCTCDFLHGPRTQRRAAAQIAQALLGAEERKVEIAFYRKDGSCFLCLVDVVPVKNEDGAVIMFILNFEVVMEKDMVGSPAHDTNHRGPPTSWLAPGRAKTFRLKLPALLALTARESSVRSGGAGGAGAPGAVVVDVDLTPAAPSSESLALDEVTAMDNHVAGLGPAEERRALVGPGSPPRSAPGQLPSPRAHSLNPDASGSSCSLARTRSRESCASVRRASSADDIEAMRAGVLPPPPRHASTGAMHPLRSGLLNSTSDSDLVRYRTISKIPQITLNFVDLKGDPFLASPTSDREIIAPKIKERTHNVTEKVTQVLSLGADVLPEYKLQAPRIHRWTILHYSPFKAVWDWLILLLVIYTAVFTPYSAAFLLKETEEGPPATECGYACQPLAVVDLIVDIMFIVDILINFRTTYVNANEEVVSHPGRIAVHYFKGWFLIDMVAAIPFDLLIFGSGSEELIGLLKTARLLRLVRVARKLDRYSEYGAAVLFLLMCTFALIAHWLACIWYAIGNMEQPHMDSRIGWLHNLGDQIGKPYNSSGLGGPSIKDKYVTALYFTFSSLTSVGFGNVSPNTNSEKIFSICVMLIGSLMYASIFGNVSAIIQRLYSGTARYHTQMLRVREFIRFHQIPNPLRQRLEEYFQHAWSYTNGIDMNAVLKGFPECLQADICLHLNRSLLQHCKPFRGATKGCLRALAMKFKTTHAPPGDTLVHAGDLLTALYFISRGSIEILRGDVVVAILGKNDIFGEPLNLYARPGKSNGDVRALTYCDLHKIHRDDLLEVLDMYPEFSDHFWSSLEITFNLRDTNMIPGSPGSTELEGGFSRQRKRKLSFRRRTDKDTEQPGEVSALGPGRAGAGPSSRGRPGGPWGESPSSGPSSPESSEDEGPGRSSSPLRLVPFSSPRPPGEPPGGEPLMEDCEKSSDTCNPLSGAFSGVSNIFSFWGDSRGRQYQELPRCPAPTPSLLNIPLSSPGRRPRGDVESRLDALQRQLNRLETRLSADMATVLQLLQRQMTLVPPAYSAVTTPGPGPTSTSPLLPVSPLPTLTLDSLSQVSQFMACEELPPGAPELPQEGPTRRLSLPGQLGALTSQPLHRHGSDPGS
`COc1cccc(C(=O)/C=C/Nc2ccc(S(=O)(=O)Nc3onc(C)c3C)cc2)c1`: the “hERG current change (%, negative = inhibition) at 10uM” value is 25.8%. For the compound `O=C(CSc1nnc2ccccn12)N1CCc2ccccc21`, the “hERG current change (%, negative = inhibition) at 10uM” value was determined as 9.5%. In the case of `CCN(CC)CCN(Cc1cc2cc3c(cc2[nH]c1=O)OCO3)C(=S)NC`, the “hERG current change (%, negative = inhibition) at 10uM” value is reported as -13.9%. As for `CC(=O)[C@@H]1[C@@H](C(=O)c2ccc(F)cc2)[C@]2(C(=O)Nc3ccccc32)[C@H]2C=Cc3cc(F)ccc3N12`, the “hERG current change (%, negative = inhibition) at 10uM” value is 1.68%. On to `COC(=O)c1sc2nc(C)cc(C)c2c1N`, for which the “hERG current change (%, negative = inhibition) at 10uM” value was found to be 20%. The same measure for `O=C(Nc1cccc(-c2nc3ccccc3s2)c1)c1cc(=O)c2ccccc2o1`: 7.92%; for `O=C(COC(=O)c1cccs1)Nc1nnc(-c2ccccc2)o1`: 1.12%. For `Cc1ccc(Cl)c(NC(=O)COC(=O)C2CCC2)c1Cl` the value was 14.7%; for `CCOC(=O)NC(Nc1nnc(C)s1)(C(=O)OCC)C(F)(F)F` (centres unmarked), 9.05%. For `COC(=O)C1CCCN1C(=O)C12CC3CC(CC(C3)C1)C2` (centres unmarked) the value was 10.1%. As for `CS(=O)(=O)NNC(=O)CN1C(=O)C2C3C=CC(C3)C2C1=O` (centres unmarked), the “hERG current change (%, negative = inhibition) at 10uM” value was determined as 25.2%. For `COc1ccccc1Nc1ncccc1[N+](=O)[O-]` the value was 23.1%. On to `CCc1ccc(C(=O)Nc2ccc(S(=O)(=O)Nc3nc(C)cc(C)n3)cc2)o1`, for which the “hERG current change (%, negative = inhibition) at 10uM” value was 0.401%.

Turning to `CC(C)CN(C(=O)COC(=O)C1=COCCO1)c1c(N)n(Cc2ccccc2)c(=O)[nH]c1=O`, the “hERG current change (%, negative = inhibition) at 10uM” value is listed as 10.8%. The same measure for `COc1ccc(CN2CCN(C(=O)c3ccc(CNS(=O)(=O)c4ccc(C)cc4)cc3)CC2)c(OC)c1OC`: -28.7%.

As for `CCCn1c(N)c(C(=O)COC(=O)CCS(=O)(=O)c2ccc(C)cc2)c(=O)[nH]c1=O`, the “hERG current change (%, negative = inhibition) at 10uM” value worked out at 15.8%.

With `COc1ccc(Br)cc1CNC(=O)CCN1C(=O)COc2ccccc21`, the “hERG current change (%, negative = inhibition) at 10uM” value was -9.62%. For `CCCn1nnc(NC(=O)C(C)Oc2ccc(Cl)cc2Cl)n1` (centres unmarked) the value was -13.5%. For `COc1ccc(C(O)(CCN2CCCCC2)C2CCCCC2)cc1.Cl` (centres unmarked) the value was -27.4%; for `Cc1cccc(C)c1NC(=O)c1ccc(CN2CCc3ccccc3C2)cc1`, 4.57%. For `CCC(C)N(C(=O)c1csnn1)C(C(=O)NC1CCCC1)c1c(F)cccc1Cl` (centres unmarked), the “hERG current change (%, negative = inhibition) at 10uM” value stood at 11.6%. On to `O=C(CCNc1cccc(F)c1)c1cccc([N+](=O)[O-])c1`, for which the “hERG current change (%, negative = inhibition) at 10uM” value is reported as -0.918%. For `CN(C(=O)Cn1cnc2ccccc2c1=O)C1CCS(=O)(=O)C1` (centres unmarked) the value was 3.29%. The same measure for `CC1CCC(NC(=O)Cn2c(=O)oc3cc(S(=O)(=O)N4CCCC4)ccc32)CC1` (centres unmarked): 12.6%; for `O=C(c1ccc(Cn2cc(Br)cn2)cc1)N1CCN(c2ccccc2)CC1`: -57.4%; for `Cc1ccc(C2(O)CN3CCC2CC3)cc1.Cl` (centres unmarked): 4%. `CC(=O)O[C@H]1c2ccccc2-c2ccccc2[C@@H]1OC(C)=O`: the “hERG current change (%, negative = inhibition) at 10uM” value came to 4.19%. The same measure for `O=C(Nc1c2c(nn1-c1ccc([N+](=O)[O-])cc1)CS(=O)(=O)C2)c1ccco1`: -64.7%; for `COc1ccccc1C(=O)NC(=S)NNC(=O)c1sc2ccccc2c1Cl`: 24%. For `COc1ccc(C(=O)NN(C)c2nc(C(F)(F)F)nc3ccccc23)cc1` the value was -20.5%; for `Cc1cc(Cl)c(S(N)(=O)=O)cc1OCC(=O)NC1CCCCC1`, 9.3%.

With `Cc1ccc(C(=O)Nc2ccc3c(c2)OCCO3)c(C)c1`, the “hERG current change (%, negative = inhibition) at 10uM” value worked out at 8.27%. The same measure for `COc1ccc(N2CCN(C(=O)[C@H](C)NC(=O)c3ccccc3Cl)CC2)cc1`: 10.8%; for `O=C(O)C1CCC(CNS(=O)(=O)c2ccccc2)CC1` (centres unmarked): 19%; for `COC(=O)C1=C(c2ccc(OC)c(OC)c2)C[C@@H]2CC[C@H]1N2C(=O)NCCOc1ccccc1Cl`: -12.7%. The same measure for `O=C1CC(N2CCN(c3ncccn3)CC2)C(=O)N1CCc1ccccc1` (centres unmarked): 17.3%. The same measure for `Cc1nnc(SCC2=C(C(=O)O)N3C(=O)C(NC(=O)Cn4ncc(Cl)c4C)C3SC2)s1` (centres unmarked): 26.9%; for `O=C(c1ccc(Cl)cc1)C(CN1CCCC1)c1ccccc1` (centres unmarked): -10.3%. Consider `COc1ccc(N=C2SCC(c3ccc([N+](=O)[O-])cc3)=NN2CCO)cc1`, for which the “hERG current change (%, negative = inhibition) at 10uM” value is on record as -53.1%.

Turning to `O=C1C=C(Nc2ccccc2)CC(c2ccccc2)C1` (centres unmarked), the “hERG current change (%, negative = inhibition) at 10uM” value turned out to be 9.51%. As to `COc1ccc(-c2cc(C)no2)cc1S(=O)(=O)N1CCN(c2ccccc2F)CC1`, the “hERG current change (%, negative = inhibition) at 10uM” value was 3.36%. On to `COc1cccc(CNC(=O)C(=O)NCCC2CCCCN2S(=O)(=O)c2ccc(C)cc2)c1` (centres unmarked), for which the “hERG current change (%, negative = inhibition) at 10uM” value was -0.335%.

`CC12CCC(C(=O)Nc3ccc4c(c3)OCCO4)(OC1=O)C2(C)C` (centres unmarked): the “hERG current change (%, negative = inhibition) at 10uM” value was -8.28%. Consider `Cc1ccc2[nH]c3c(=O)n(CC(=O)NCCCN4CCN(c5ccc(F)cc5)CC4)ncc3c2c1`, for which the “hERG current change (%, negative = inhibition) at 10uM” value stood at 14.8%. The same measure for `COc1ccc(OCC(=O)NC(=S)Nc2ccc(S(=O)(=O)Nc3cc(OC)nc(OC)n3)cc2)cc1`: 10.7%; for `CCOc1nc(SCCOc2ccccc2)nc(N(C)C)n1`: -13.7%; for `COc1ccc(CN(C(=O)c2ccc(-c3ccccc3)[nH]2)C(C(=O)NCC2CCCO2)c2ccc(C)o2)cc1` (centres unmarked): -13.4%. The same measure for `COc1ccc(-c2noc(CCCc3ccccc3)n2)cc1OC`: -8.78%. With `CCCCOC(=O)CCc1n[nH]c(=O)[nH]c1=O`, the “hERG current change (%, negative = inhibition) at 10uM” value is on record as 1.61%.

With `COc1ccc(CNC(=O)/C(C#N)=C2\N=C(NC(=O)c3cccs3)c3ccccc32)cc1`, the “hERG current change (%, negative = inhibition) at 10uM” value is -0.714%. With `Cc1ccc(SC(CC(=O)c2ccc(C)cc2)C(=O)O)cc1` (centres unmarked), the “hERG current change (%, negative = inhibition) at 10uM” value amounted to 9.22%. Take `C/C(CCc1c[nH]c2ccccc12)=N\O`: the “hERG current change (%, negative = inhibition) at 10uM” value was -1.39%. Regarding `Cc1ccc(Nc2nc(CSc3n[nH]c(N)n3)cs2)cc1`, the “hERG current change (%, negative = inhibition) at 10uM” value was found to be 14.3%. The same measure for `O=C(O)c1cccc2c1C(=O)c1ccc(N3CCCCC3)cc1S2(=O)=O`: 9.28%; for `COc1ccc(Nc2nc(-c3cc4cccc(OC)c4oc3=O)cs2)cc1`: 11.6%; for `O=C(NNC(=O)c1ccco1)c1ccc(NS(=O)(=O)c2cccs2)cc1`: 14.9%.

In the case of `O=C(OCC(=O)N(C1CCCCC1)C1CCCCC1)c1ccccc1O`, the “hERG current change (%, negative = inhibition) at 10uM” value was 10.5%. Take `COc1ccc(C(=O)NCc2nnc(SCC(=O)Nc3nc4ccccc4s3)o2)cc1`: the “hERG current change (%, negative = inhibition) at 10uM” value amounted to 9.66%. With `COc1ccc(C(=O)NC(CC(=O)O)c2cc([N+](=O)[O-])ccc2Cl)cc1` (centres unmarked), the “hERG current change (%, negative = inhibition) at 10uM” value turned out to be 24%. Take `COc1ccc(N=Nc2ccc(N)nc2N)cc1`: the “hERG current change (%, negative = inhibition) at 10uM” value amounted to 18.5%. The same measure for `COc1ccc(Cl)cc1NCC(=O)Nc1ccc(OC)c(S(=O)(=O)N2CCCCC2)c1`: -9.19%; for `Cc1cc(C)n(-c2cc(C(=O)O)cc(C(=O)O)c2)n1`: 14.7%; for `O=C(c1cc2sccc2n1Cc1ccc(F)cc1)N1CCCc2ccccc21`: 15.3%.

As to `CCOc1ccccc1OCCCC(=O)N1CCN(S(=O)(=O)c2cccc(F)c2)CC1`, the “hERG current change (%, negative = inhibition) at 10uM” value was -28.6%. For `CCC(=O)NC(C)c1cc(Cl)c2ccccc2c1O` (centres unmarked) the value was -4.05%.

For the compound `O=C(O)COc1ccc(NC(=O)c2ccc(NC(=O)c3ccco3)cc2)cc1`, the “hERG current change (%, negative = inhibition) at 10uM” value stood at 8.95%.

`CCOC(=O)c1c(N)sc(C(O)(C(F)(F)F)C(F)(F)F)c1-c1ccc(Cl)cc1`: the “hERG current change (%, negative = inhibition) at 10uM” value is -4.79%. For `Cc1[nH]nc2c1/C(=N/O)CC(c1ccccc1)C2` (centres unmarked) the value was 8.29%; for `O=S(=O)(c1ccc(NC2CCCc3ccccc32)nc1)N1CCOCC1` (centres unmarked), 2.1%; for `CCCC(C)n1[nH]c(=O)c2c1NC(=O)CSC2c1ccccc1` (centres unmarked), -6.71%. For `NNc1nc2c(-c3ccc(Cl)cc3)nnn2c2ccccc12` the value was 3.39%; for `COc1cccc(/C=N/NC(=O)CCNc2n[nH]c(=O)[nH]c2=O)c1OC`, 15.9%; for `C=CCNC(=O)CSc1ncc2c(n1)-c1c(csc1SC)CC2`, -11.2%. Consider `COc1ccc(CN2CCN(C3CCSCC3)CC2CCO)c(C)c1C` (centres unmarked), for which the “hERG current change (%, negative = inhibition) at 10uM” value is given as -51.1%. As for `Cc1cc(C)n(S(=O)(=O)/C=C/c2ccccc2)n1`, the “hERG current change (%, negative = inhibition) at 10uM” value was -0.911%. Regarding `Cc1c(OCC(=O)N2CCC[C@@H]2C(=O)O)ccc2c3c(c(=O)oc12)CCC3`, the “hERG current change (%, negative = inhibition) at 10uM” value came out at 6.59%. As to `O=C(CCC(=O)OCc1cccc([N+](=O)[O-])c1)Nc1ccccc1Cl`, the “hERG current change (%, negative = inhibition) at 10uM” value is reported as 11.4%. On to `COc1ccc(N2CCN(C(=O)C(Cc3ccccc3)n3cccc3)CC2)cc1` (centres unmarked), for which the “hERG current change (%, negative = inhibition) at 10uM” value is -13.3%. The same measure for `Cc1ccc(-c2nnnn2-c2ccccc2C(=O)O)cc1`: 14.6%; for `CCCc1c(C(=O)Nc2ccc(N3CCOCC3)cc2)cnn1-c1ccccc1`: 8.44%; for `Cc1ccc(CSc2nc3ccccc3c(=O)[nH]2)cc1`: 2.97%. For `COc1ccc(NS(=O)(=O)c2cc(NC(=O)/C=C/c3ccccc3OC)ccc2N2CCCCC2)cc1` the value was 15.7%; for `O=C(COC(=O)CCc1nc2ccccc2s1)Nc1ccc(S(=O)(=O)N2CCOCC2)cc1`, -32.9%; for `CCOc1ccccc1NC(=O)CSc1ccc(-c2sc(C)nc2C)nn1`, 0.811%.

In the case of `Cc1cc(C(=O)N/N=C/C=C/c2ccccc2)c(C)o1`, the “hERG current change (%, negative = inhibition) at 10uM” value was -5.38%. For the compound `CC(=O)N1CCN(Cc2nc3ccc(Cl)cc3n2CCO)CC1`, the “hERG current change (%, negative = inhibition) at 10uM” value is on record as -4.05%.
